{
  "source": "PubChem BioAssay AID1346428",
  "about": "(National Center for Advancing Translational Sciences (NCATS), 2018)",
  "note": "The campaign covered roughly 48,000 compounds. About 1,200 (2.5%) were called active. Roughly 2% stayed inconclusive and do not appear here.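 How the source made its calls: active means activation of at least 60% and not above a set upper limit (about 1 call in 100 departs from these limits); inconclusive means activation of 40% to 60%, or above that upper limit; inactive means activation under 40%.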 This is one part of the list.",
  "data": [
    {"target": "Probable G-protein coupled receptor 32 (Homo sapiens) (UniProt O75388)", "sequence (O75388 whole entry, looked up, the tested form may be a part)": "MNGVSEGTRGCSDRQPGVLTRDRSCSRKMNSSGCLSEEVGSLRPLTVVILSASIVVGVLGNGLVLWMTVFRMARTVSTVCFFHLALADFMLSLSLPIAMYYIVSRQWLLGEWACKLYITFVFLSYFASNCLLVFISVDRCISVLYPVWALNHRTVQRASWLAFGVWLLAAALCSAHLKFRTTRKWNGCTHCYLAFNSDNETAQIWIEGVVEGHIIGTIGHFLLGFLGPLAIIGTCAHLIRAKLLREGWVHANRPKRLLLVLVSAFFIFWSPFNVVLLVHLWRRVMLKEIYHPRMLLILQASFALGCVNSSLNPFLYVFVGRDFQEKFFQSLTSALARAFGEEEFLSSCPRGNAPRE", "experiment": "qHTS for Agonists of Human Resolvin D1 Receptor DRV1", "settings": "CHO-K1 GPR32 beta-arrestin PathHunter luminescence, 90 min; at 76.9 µM; hits give high values; zero percent set by DMSO-only wells", "in_short": "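PathHunter enzyme-fragment complementation, CHO-K1 GPR32 stable line; 2,500 cells/well, overnight attach; cpd 90 min 37 °C 5% CO2; detection reagent 1 h RT; chemiluminescence. DMSO = EC0.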", "values": [
      {"smiles": "COc1ccc(S(=O)(=O)N2CCCCC2)cc1C(=O)NC1CCS(=O)(=O)C1", "note": "(centres undefined)", "activation": "inactive: -12.9%"},
      {"smiles": "CCOc1ccccc1CNC(=O)CN1C(=O)c2cccnc2Oc2ccc(Cl)cc21", "activation": "inactive: 0.166%"},
      {"smiles": "CCS(=O)(=O)N1CCC2(CC1)OC(=O)C(C)=C2C(=O)NCc1ccc(OC)c(OC)c1", "activation": "inactive: 7.23%"},
      {"smiles": "Cc1ccc(C(=O)c2cn(Cc3ccccc3)c3c(F)cc(F)cc3c2=O)cc1", "activation": "inactive: 39%"},
      {"smiles": "O=C(Nc1ccccc1)c1ccc(Cl)c(S(=O)(=O)Nc2ccccc2)c1", "activation": "active: 91.4%"},
      {"smiles": "CCC1Oc2ccccc2N(CC(=O)NCc2ccccc2)C1=O", "note": "(centres undefined)", "activation": "inactive: -15.8%"},
      {"smiles": "Cc1cc(Nc2cccc(Cl)c2)nc2ccc(NC(=O)Cc3c(F)cccc3Cl)cc12", "activation": "inactive: 6.4%"},
      {"smiles": "COc1ccc(N2CCN(C(=O)c3cn(C)c4ccc(S(=O)(=O)N5CCOCC5)cc4c3=O)CC2)cc1", "activation": "inactive: -3.38%"},
      {"smiles": "COc1ccc2nc(N(Cc3cccnc3)C(=O)c3ccc(Cl)cc3)sc2c1", "activation": "inactive: -13.9%"},
      {"smiles": "Cn1c(=O)c(=O)n(C)c2cc(N3CCCC3)c(NC(=O)c3ccccc3Cl)cc21", "activation": "inactive: 1.25%"},
      {"smiles": "CCN(CC)c1ccc2nc3c(=O)n(C)c(=O)n(C)c3nc2c1", "activation": "inactive: -14.1%"},
      {"smiles": "Cc1nn(CC(=O)N2CCN(c3ccccc3F)CC2)c(=O)c2cccn12", "activation": "inactive: 7.12%"},
      {"smiles": "CC(C)c1ccc(NC(=O)[C@H]2O[C@@H]3OC(C)(C)O[C@@H]3[C@H]3OC(C)(C)O[C@H]32)cc1", "activation": "inactive: 36.7%"},
      {"smiles": "Cc1cc(OC(C)C(=O)N(Cc2ccco2)Cc2ccco2)cc(C)c1Cl", "note": "(centres undefined)", "activation": "inactive: 9.06%"},
      {"smiles": "CCN(Cc1ccccc1)C(=O)Cn1c(=O)cc(C)c2c(C)nn(-c3cccc(F)c3)c21", "activation": "inactive: 0.159%"},
      {"smiles": "O=C(CSc1oc(-c2ccc(F)cc2)nc1S(=O)(=O)c1ccccc1)c1ccc(Cl)cc1", "activation": "inactive: -18.8%"},
      {"smiles": "CC(C)c1nn2c(=O)cc(COC(=O)c3cccc(NC(=O)CCc4ccccc4)c3)nc2s1", "activation": "inactive: -14.5%"},
      {"smiles": "CCn1nc(C)c(CCN(C)C(=O)Nc2cc(Cl)c(OC)cc2OC)c1C", "activation": "inactive: 2.88%"},
      {"smiles": "CCc1ccc2occ(CC(=O)Nc3nnc(SC)s3)c2c1", "activation": "inactive: 3.72%"},
      {"smiles": "CC(C)c1ccc(NC(=O)C2CCC(CNS(=O)(=O)c3ccc4c(c3)CCCC(=O)N4)CC2)cc1", "note": "(centres undefined)", "activation": "inactive: 1.25%"},
      {"smiles": "COc1ccc(CNC(=O)CCn2c(=O)c3cccn3c3ccc(F)cc32)cc1OC", "activation": "inactive: -4.36%"},
      {"smiles": "CCN1C(=O)c2ccccc2S(=O)(=O)c2ccc(C(=O)NCc3ccc(C)cc3)cc21", "activation": "inactive: -17.1%"},
      {"smiles": "CCOc1ccc(-c2nnc(SCC(=O)NC3CCCCC3)nc2-c2ccc(OCC)c(OC)c2)cc1OC", "activation": "inactive: -14.8%"},
      {"smiles": "Cn1c(=O)c2c(-c3ccccc3)n(-c3cccc(C#N)c3)cc2n(C)c1=O", "activation": "inactive: -4.45%"},
      {"smiles": "O=C(O)c1ccc(Nc2ncnc3scc(-c4ccccc4)c23)cc1", "activation": "inactive: 2.12%"},
      {"smiles": "CCOC(=O)c1[nH]c(C)c(CCC(=O)N2CCN(c3ccc(Cl)cc3)CC2)c1C", "activation": "inactive: 2.43%"},
      {"smiles": "CCS(=O)(=O)c1nc(S(=O)(=O)c2ccc(Cl)cc2)c(NCc2ccc(Cl)cc2)s1", "activation": "inactive: 6.02%"},
      {"smiles": "COc1ccc(-c2ccc(=O)n(CC(=O)Nc3ccc(Br)cc3F)n2)cc1", "activation": "inactive: -37.7%"},
      {"smiles": "COc1ccc(Cc2c(C)nn(-c3nc(C)c(C(=O)Nc4cccc(C(C)=O)c4)s3)c2C)cc1", "activation": "inactive: -5.48%"},
      {"smiles": "CCc1ccc2nc(N(Cc3cccnc3)C(=O)Cc3ccccc3)sc2c1", "activation": "inactive: -34.1%"},
      {"smiles": "Cc1cc2c(OCC(CNC(C)(C)C)OC(=O)c3ccccc3)cccc2[nH]1", "note": "(centres undefined)", "activation": "inactive: -5.62%"},
      {"smiles": "CCC(C(=O)NCc1ccccc1Cl)n1c(=O)c2cccn2c2ccccc21", "note": "(centres undefined)", "activation": "inactive: -24.1%"},
      {"smiles": "O=C(NCc1ccccc1)c1c2c(nc3ccccc13)C(=O)N(C1CCCCC1)C2", "activation": "inactive: -11.1%"},
      {"smiles": "CCc1ccccc1N1C(=O)N(Cc2cc(=O)n3ccccc3n2)c2ccccc2S1(=O)=O", "activation": "inactive: -10.7%"},
      {"smiles": "COC(=O)c1cc(OC)c(OC)cc1NC(=O)c1ccc2c(c1)CCN2S(C)(=O)=O", "activation": "inactive: -3.65%"},
      {"smiles": "Cc1ccc2c(c1)N(C(=O)c1ccc(F)cc1)C(C)(C)CC2(C)c1ccccc1", "note": "(centres undefined)", "activation": "inactive: 9.22%"},
      {"smiles": "CCOC(=O)c1ccc(N2C(=O)c3n[nH]c(C)c3C2c2ccc(CC)cc2)cc1", "note": "(centres undefined)", "activation": "inactive: 15.3%"},
      {"smiles": "Oc1ccc(C2CNCc3sccc32)cc1O", "note": "(centres undefined)", "activation": "inactive: 5.61%"},
      {"smiles": "CCc1ccccc1NC(=O)Cn1nc(C)c2nn(-c3ccc(Cl)cc3)c(C)c2c1=O", "activation": "inactive: -17.4%"},
      {"smiles": "COc1cc2[nH]c(=O)n(CCCC(=O)N(C)Cc3ccccc3)c(=O)c2cc1OC", "activation": "inactive: -2.67%"},
      {"smiles": "Cc1ccc(-n2nc(C(=O)N(C)c3ccccc3Cl)c3c4ccccc4n(C)c3c2=O)cc1", "activation": "inactive: -1.05%"},
      {"smiles": "CCc1ccc(S(=O)(=O)c2cn(C)c3ccc(C)cc3c2=O)cc1", "activation": "inactive: -3.23%"},
      {"smiles": "CN1CCN(C(=O)C2CCCCC2)CC1", "activation": "inactive: -5.96%"},
      {"smiles": "Cc1ccc(NC(=O)Cn2cc(S(=O)(=O)Cc3ccccc3)c3ccccc32)cc1C", "activation": "inactive: 11.9%"},
      {"smiles": "COC(=O)c1cc2occc2n1Cc1nc(-c2ccc(Cl)cc2)oc1C", "activation": "inactive: -19.2%"},
      {"smiles": "CCOCCCNC(=O)CN1C(=O)CCn2nc(-c3cccn3C)cc21", "activation": "inactive: 27.1%"},
      {"smiles": "CSc1ccc(CCNC(=O)C2CCCN(S(=O)(=O)N(C)c3ccc(F)cc3)C2)cc1", "note": "(centres undefined)", "activation": "inactive: 7.01%"},
      {"smiles": "CN(C)S(=O)(=O)N(CC(=O)NCCSCc1ccc(Cl)cc1Cl)c1ccccc1", "activation": "inactive: 47.6%"},
      {"smiles": "CCOC(=O)C(Cc1ccccc1)NC(=O)Cn1nnc(-c2ccc(C)cc2)n1", "note": "(centres undefined)", "activation": "active: 61.9%"},
      {"smiles": "COc1ccc(NC(=O)CN2C(=O)C(c3ccccc3)=NC23CCC(C)CC3)cc1Cl", "note": "(centres undefined)", "activation": "inactive: -11.7%"},
      {"smiles": "N=C(N)SCCc1ccc(CCSC(=N)N)cc1", "activation": "inactive: -1.77%"},
      {"smiles": "COc1ccc(CN(CCN(C)C)c2ncccn2)cc1", "activation": "inactive: -4.43%"},
      {"smiles": "O=C1Cc2cc(S(=O)(=O)Nc3cccc(C(F)(F)F)c3)cc3c2N1CCC3", "activation": "inactive: 2.19%"},
      {"smiles": "Cc1cccn2c(=O)cc(COc3cccc(NC(=O)Nc4cccc(Cl)c4)c3)nc12", "activation": "inactive: -9.46%"},
      {"smiles": "CC(C)c1ccc(NC(=O)c2cc(S(=O)(=O)NCCc3ccccc3)ccc2F)cc1", "activation": "inactive: -4.01%"},
      {"smiles": "COc1ccc(C(C)C)cc1S(=O)(=O)NCCc1c(C)[nH]c2c(Cl)cccc12", "activation": "inactive: -7.1%"},
      {"smiles": "CCSc1ncc(Cl)c(C(=O)Nc2sc(C(C)=O)c(C)c2C(=O)OC)n1", "activation": "inactive: 1.63%"},
      {"smiles": "Cc1ccc2c(c1)c1c(c(=O)n(-c3cccc(Cl)c3)c(=O)n1C)n2C", "activation": "inactive: -6.27%"},
      {"smiles": "COc1ccc(CNC(=O)c2ccc(Sc3ccc(Cl)cc3)c(NC(C)=O)c2)c(OC)c1", "activation": "inactive: -18.4%"},
      {"smiles": "O=C1CN(C(=O)COc2ccc(Cl)cc2Cl)C(c2ccc(F)cc2)c2cc(F)ccc2N1", "note": "(centres undefined)", "activation": "inactive: -12.2%"},
      {"smiles": "COc1ccc(C(=O)c2oc3ccccc3c2NC(=O)c2nc(SC)ncc2Cl)cc1Cl", "activation": "inactive: -1.63%"},
      {"smiles": "NCCC(O)(P(=O)(O)O)P(=O)(O)O", "activation": "inactive: 17%"},
      {"smiles": "CCc1cccc(NC(=O)c2c(C)oc3ncnc(N4CCCCC4)c23)c1", "activation": "inactive: -7.62%"},
      {"smiles": "CCOC(=O)c1c(NC(=O)c2cc3nc(-c4ccc(OC)cc4)cc(C(F)(F)F)n3n2)sc(C)c1C", "activation": "inactive: 6.63%"},
      {"smiles": "CCOC(=O)c1nnn(C(CC)C(=O)Nc2c(C)cccc2C)c1C(=O)OCC", "note": "(centres undefined)", "activation": "inactive: -3.34%"},
      {"smiles": "CC(C)c1ccc(Nc2cc(C(=O)NCc3cccs3)c3ccccc3n2)cc1", "activation": "inactive: 21.1%"},
      {"smiles": "CCOC(=O)N1CCc2c(sc(NCc3cccs3)c2C(=O)Nc2cc(OC)ccc2OC)C1", "activation": "inactive: -0.112%"},
      {"smiles": "CCN(CC)C(=O)CSc1nnc2[nH]c(=O)cc(C)n12", "activation": "inactive: 12.7%"},
      {"smiles": "Cc1ccc(NC(=O)N2CCN(c3nnc(C)c4c(C)n(-c5ccccc5)nc34)CC2)c(Cl)c1", "activation": "inactive: 4.39%"},
      {"smiles": "CCOc1ccc2nc(N3CCCC(C(=O)NCc4ccc(OC)cc4)C3)sc2c1", "note": "(centres undefined)", "activation": "inactive: 4.09%"},
      {"smiles": "CCOc1ccc(-c2cccc(NS(=O)(=O)c3ccc(Cl)s3)c2)nn1", "activation": "inactive: -1.93%"},
      {"smiles": "CCNc1nc(Oc2ccc(OCC(=O)OC)nn2)nc(N2CCOCC2)n1", "activation": "inactive: 9.33%"},
      {"smiles": "CCc1ccccc1NC(=O)CCCN1C(=O)COc2ccc(C)cc21", "activation": "inactive: -27.4%"},
      {"smiles": "FC(F)(F)c1ccc(C2=Nc3ccccc3NC(c3cccs3)=N2)cc1", "activation": "inactive: -18.7%"},
      {"smiles": "COc1ccc(F)cc1NC(=O)C1CCN(c2nc(-c3ccc(OC)c(OC)c3)no2)CC1", "activation": "inactive: -6.23%"},
      {"smiles": "COc1cccc(C(=O)NC(c2ccc(Cl)cc2)c2cc(Cl)c3cccnc3c2O)c1", "note": "(centres undefined)", "activation": "inactive: -69.3%"},
      {"smiles": "Cc1ccc(-n2nc(C)c3c(C)cc(=O)n(CC(=O)NCc4ccc(OC(C)C)cc4)c32)cc1", "activation": "inactive: 2.48%"},
      {"smiles": "O=C(COc1ccc(F)cc1)Nc1cccc(OCc2cc(=O)n3ccccc3n2)c1", "activation": "inactive: -9.71%"},
      {"smiles": "COc1ccc(Nc2ncc(C(=O)Nc3cc(C)ccc3OC)c3ccccc23)cc1", "activation": "inactive: 8.22%"},
      {"smiles": "Cc1ccc(Cl)cc1NC(=O)Cn1c(=O)oc2cc(S(=O)(=O)N3CCCCCC3)ccc21", "activation": "inactive: 3%"},
      {"smiles": "Cn1c(C(=O)NCc2ccc(Cl)cc2)cc2c(=O)n(C)c3ccccc3c21", "activation": "inactive: -7.52%"},
      {"smiles": "Cc1ccc2c(c1)c1c(c(=O)n(-c3ccccc3C)c(=O)n1Cc1ccccc1F)n2C", "activation": "inactive: -5.27%"},
      {"smiles": "COc1ccc(NC(=O)CCc2c(C)nc3c(-c4ccccc4)c(C)nn3c2C)cc1Cl", "activation": "inactive: 13.6%"},
      {"smiles": "Cc1ccc(OCC(=O)Nc2c(Cl)ccc3nsnc23)cc1C", "activation": "active: 84.5%"}
    ]}
  ]
}
